# Data from patent US20160311919A1.
# Tests used:
# [1] = molecular target: GPNMB-V5His (recombinant human GPNMB extracellular domain with C-terminal V5-His tag) (human) (UniProt Q14956); experiment: ELISA, coated GPNMB, Ab 37 ng/mL
# [2] = molecular target: GPNMB-V5His (recombinant human GPNMB extracellular domain with C-terminal V5-His tag) (human) (UniProt Q14956); experiment: ELISA, coated GPNMB, Ab 111 ng/mL
# [3] = molecular target: GPNMB-V5His (recombinant human GPNMB extracellular domain with C-terminal V5-His tag) (human) (UniProt Q14956); experiment: ELISA, coated GPNMB, Ab 12.3 ng/mL
# [4] = molecular target: GPNMB-V5His (recombinant human GPNMB extracellular domain with C-terminal V5-His tag) (human) (UniProt Q14956); experiment: ELISA, coated GPNMB, Ab 3 ug/mL
# [5] = molecular target: GPNMB-V5His (recombinant human GPNMB extracellular domain with C-terminal V5-His tag) (human) (UniProt Q14956); experiment: ELISA, coated GPNMB, Ab 333 ng/mL
# [6] = molecular target: GPNMB-V5His (recombinant human GPNMB extracellular domain with C-terminal V5-His tag) (human) (UniProt Q14956); experiment: ELISA, coated GPNMB, Ab 1 ug/mL
binder,measurement,setting,value
"2-24 (hybridoma of Table 6) (antibody, V domains shown) VH: QLVQSGAEVKKPGESLKISCQGSGYIFTNYWIGWVRQMPGKGLEWMGVIYPDDSDTRYSPSFQGQVTISADKSISTAYLQWSSLKASDTAIYYCARQKWLQHPFDYWGQGTLVTVSS VL: [about 100 residues not printed]FGQGTKVEIKR",Avg OD,[1],0.016 OD
same,Avg OD,[2],0.023 OD
same,Avg OD,[3],0.017 OD
same,Avg OD,[4],0.06 OD
same,Avg OD,[5],0.028 OD
same,Avg OD,[6],0.042 OD
